Results published in the supplement of paper PMC11417369.
± gives the standard deviation of the averaged measurements. This is one part of the list.

system: PfAP2-G AP2 domain (GST-tagged); experiment: gcPBM binding intensity (ln(normalized median fluorescence intensity)); higher = stronger DNA binding
Summary of the method: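 GST-tagged P. falciparum DNA-binding domains, expressed in E. coli (about 25 μg on average), were applied for 1 h to an Agilent 4 × 180k array of primer-extended double-stranded 36-bp intergenic genomic probes plus negative controls. The binding buffer was 1× PBS with 1% milk, 0.2 mg/ml BSA, 0.5% salmon testes DNA and 0.03% Triton X-100. Bound protein was detected with Alexa488 anti-GST antibody and scanned at 488 nm. Binding intensity is the highest Masliner-normalised natural-log median intensity across replicate spots of either probe orientation.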

Row | Sequence | gcPBM binding intensity (ln)
1 | ATATACATTCAAGGCTGTACACTATATTTTTTTTTT [XGTACX_site6514] | 11.1 ± 0.63
2 | ATATGTATTGGAGTGTGTACATATATATATATTTAT [XGTACX_site5633] | 11.4 ± 0.89
3 | TTAATAATGTTTTATTGTACTTTTTTGTGGGTTTAT [XGTACX_site5670] | 11.3 ± 1
4 | GTGCTACATCATATGTGTACATATACCAAACTGTAT [XGTACX_site8233] | 11.3 ± 0.7
5 | TTTGTGTAAAGAATCAGTACATATAATATATATATA [XGTACX_site1972] | 10.9 ± 0.74
6 | TATAATATATTTTGATGTACAAATATATTATATATA [XGTACX_site8633] | 10.8 ± 0.7
7 | ATAATATATTTTTGAACACACAATATATATATATAT [CACACA_site4124] | 9.97 ± 0.16
8 | ATATAAATATGACACACACACAAAAAAAATAAAGAC [CACACA_site6208] | 10.3 ± 0.2
9 | TTGATAAAACGTTATGCACACGTACGTGGGTATTTA [CACACA_site8445] | 11.3 ± 0.61
10 | TATAAAATTATTAAACAAGAAAATTTTAGGTAATAC [TGCATGCA_negctrl_site568] | 9.895 ± 0.064
11 | TAAAGTATTACAACCACACACACACCCATATATTAT [CACACA_site4159] | 10.4 ± 0.37
12 | AGTATACACGAACACACACACACATATATAAATATA [CACACA_site6913] | 10.1 ± 0.15
13 | TAAGTGTATGTATATAAACACACATACATATATATA [CACACA_site8397] | 9.905 ± 0.007
14 | TAATTTAAAAATTCCTGTACTCAGTTTTTTCTATTT [XGTACX_site4961] | 11.3 ± 0.97
15 | AGTAGATATTATTATAGTACTTTTTATTTTATATTT [XGTACX_site1551] | 11.1 ± 0.59
16 | GGAATTCATATTAATTGTACATTTAAAGATAGATGA [XGTACX_site3279] | 10.8 ± 0.46
17 | GAAGACAATTATATGTGTACATATATATACATATAT [XGTACX_site4630] | 11.3 ± 0.76
18 | AAAATTTATGGAAGGTGTACTGTTAATTATGTATAT [XGTACX_site6446] | 11.3 ± 0.79
19 | ATATTAAAGATATATACACACATATTTATAAATATA [CACACA_site7127] | 9.825 ± 0.078
20 | TAATATGTGGACTTTACACACTTGTTTTAAAATTCT [CACACA_site4605] | 10.8 ± 0.47
21 | ATATTTTACATATTTGCACACATATATTTATATACA [CACACA_site855] | 10.12 ± 0.071
22 | ATATATATATATATATGTACTTATTTATTTATTTAT [XGTACX_site4645] | 11.2 ± 0.95

Row | Sequence | gcPBM binding intensity (ln)
23 | TACCTACCTTTACGGAGTACACAATAATAGTTATAA [XGTACX_site6593] | 11.6 ± 0.95
24 | TTTATTTATCTTTACGCACACACTTGCATGTACAAA [CACACA_site1118] | 11.1 ± 0.81
25 | ATATAAAAATAATAGAGTACAAAAAAAAAATGTATA [XGTACX_site7054] | 11.3 ± 0.66
26 | GATGATACGATTATCACACATTTATACTTTCTACAT [CACACA_site5669] | 9.945 ± 0.007
27 | TGTATACATTATTAAGTGCAAGTAGGGAAAAAAAAA | 10.2 ± 0.2
28 | TATATATATATATGTGCACACATAATAAAAAAAAAA [CACACA_site3830] | 10.7 ± 0.79
29 | TAAACATATACACGTACATGCAACGGATTTTTTTTT [TGCATGCA_site70] | 11.5 ± 0.99
30 | CAAGAAAAGAAACACACACACATATATATATATATA [CACACA_site3881] | 9.88 ± 0.23
31 | ATATAACTTTTAAAAGCATGCAAATATTTACTCAAT [TGCATGCA_site396] | 9.98 ± 0.014
32 | ATTACAATTTTAATAGTGCATTTTTATATATTTCTA [GTGCAC_site9918] | 9.64 ± 0.28
33 | ATATGATTAATTAAGTGTACGTATTTATAATTATAA [XGTACX_site5783] | 11.7 ± 1
34 | GTCTCGATAATGAAAAGTACAAAATAAAAATAATAA [XGTACX_site6471] | 11.2 ± 0.8
35 | TATAAGTATTAATACACACACAAAATAATAAAAAAA [CACACA_site3481] | 10.12 ± 0.071
36 | AAAAATAAAGGATATACACACTAATTCTATAAATAT [CACACA_site7344] | 9.95 ± 0.085
37 | TTGTATGAATTTATTTTTATTGATAATTAATATGTA [TGCATGCA_negctrl_site143] | 9.58 ± 0.099
38 | GAAATGTCATATAATAGTACACACATGAAAATATAA [XGTACX_site6838] | 11.4 ± 0.91
39 | TATGATTAATTACCACAATTGACAAAAAAAAAAAAA [CACACA_negctrl_site336] | 9.9 ± 0.48
40 | TAAAGAATAATACATTCACACAATATTATAAAAATA [CACACA_site5986] | 9.83
41 | AATAAACATAGATGTACACACATATACAGATATATA [CACACA_site5570] | 11.5 ± 1
42 | ATACAAAAGGGGAATACACACACATATATATATATA [CACACA_site8694] | 10.3 ± 0.28
43 | TCTCATATATTGAATTGTACATATGTTAAAATATAG [XGTACX_site6764] | 10.8 ± 0.58
44 | TATTAATTTTTATACGCATGTGTATAGTAATATATA [TGCATGCA_site1010] | 10.2 ± 0.22
